This data set concerns the molecule itself. As to the kind of experiment: cryo-EM structure; nanodisc-reconstituted TRPV1 (MSP2N2; POPC:POPE:POPG 3:1:1) with 50 µM RTx, frozen at 4 °C, 25 °C or 48 °C; 20 mM HEPES pH 7.5, 150 mM NaCl; six reconstructions at 3.04-3.45 Å.

As a reminder, the stoichiometry N is a count of units in the complex or per binding partner.

B1: full-length wild-type Rattus norvegicus (rat) TRPV1 (natural protein)
chain: not shown
notes: TRPV1 (vanilloid receptor 1), rat, full-length wild type, cloned into pEG-BacMam; also called transient receptor vanilloid member 1; vanilloid receptor TRPV1
As for B1, the “stoichiometry N” value was 4.

For the origin of these results see publication PMC9130279, “Vanilloid-dependent TRPV1 opening trajectory from cryoEM ensemble analysis” (Nature Communications, 2022).
